In PMC5700166 one finds binding signal data, which are given here for 14 sequences.

Only a part is listed here, and it is no random draw. The list includes weakly bound sequences.

What all share (assay): protein-binding microarray (PBM)
What all share (details): PBM: ~300 nM protein, 6 mM HEPES pH 7.8, 80 mM KCl, 0.5 mM EDTA, 0.5 mM EGTA, 6% glycerol, 35 ng/ul poly-dIdC, 1% milk, 1 h, room temperature; Ap Aiptasia and Nv Nematostella (sea anemones) / Co Capsaspora / Aq Amphimedon (sponge) / Dm Drosophila / Hu human; RHD is the Rel homology domain; high values mean tight binding; most listed sequences are background and not binding sites; double strand, one strand shown

For one assay, the target named is T1, GST-Ap-NF-kB RHD (UniProt A0A913YAJ5).
T1 sequence: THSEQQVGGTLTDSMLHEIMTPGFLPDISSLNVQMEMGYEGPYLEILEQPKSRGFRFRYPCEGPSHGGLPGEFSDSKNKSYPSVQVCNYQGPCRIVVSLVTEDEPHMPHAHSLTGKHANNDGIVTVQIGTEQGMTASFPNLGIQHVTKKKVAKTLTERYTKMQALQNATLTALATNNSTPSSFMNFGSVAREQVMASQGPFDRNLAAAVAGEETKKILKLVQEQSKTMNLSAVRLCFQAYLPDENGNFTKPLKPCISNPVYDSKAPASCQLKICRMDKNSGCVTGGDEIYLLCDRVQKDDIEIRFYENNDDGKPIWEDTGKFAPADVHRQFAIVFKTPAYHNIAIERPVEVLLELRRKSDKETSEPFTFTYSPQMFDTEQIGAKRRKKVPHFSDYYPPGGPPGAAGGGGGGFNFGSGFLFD

Assay [1] addresses T2, GST-Nv-NF-kB (Cys allele) (UniProt E5G601).
T2 sequence: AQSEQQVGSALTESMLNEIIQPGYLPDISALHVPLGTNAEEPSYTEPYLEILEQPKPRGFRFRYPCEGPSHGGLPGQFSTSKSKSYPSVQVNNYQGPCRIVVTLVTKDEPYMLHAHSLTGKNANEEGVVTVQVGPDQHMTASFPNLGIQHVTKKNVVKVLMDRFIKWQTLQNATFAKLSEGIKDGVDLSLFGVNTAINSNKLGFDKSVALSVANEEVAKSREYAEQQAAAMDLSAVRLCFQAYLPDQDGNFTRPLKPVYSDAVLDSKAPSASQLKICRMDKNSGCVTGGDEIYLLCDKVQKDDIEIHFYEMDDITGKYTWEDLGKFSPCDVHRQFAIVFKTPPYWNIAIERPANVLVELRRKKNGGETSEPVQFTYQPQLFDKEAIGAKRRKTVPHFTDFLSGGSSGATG

The target of the next assay is T3, GST-Dm-Relish (UniProt Q94527).
T3 sequence: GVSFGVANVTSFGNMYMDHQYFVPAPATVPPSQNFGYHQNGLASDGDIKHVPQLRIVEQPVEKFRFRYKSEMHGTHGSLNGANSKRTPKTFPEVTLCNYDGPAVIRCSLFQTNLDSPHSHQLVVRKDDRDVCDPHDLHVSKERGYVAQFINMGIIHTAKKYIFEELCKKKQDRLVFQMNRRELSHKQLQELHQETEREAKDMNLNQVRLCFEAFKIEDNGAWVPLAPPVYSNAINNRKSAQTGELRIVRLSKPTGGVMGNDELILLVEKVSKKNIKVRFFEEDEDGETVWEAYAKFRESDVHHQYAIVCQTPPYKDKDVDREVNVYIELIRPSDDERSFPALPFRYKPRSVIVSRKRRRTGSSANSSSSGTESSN

For a further assay, the target named is T4, GST-Aq-NF-kB (UniProt A9Y5G7).
T4 sequence: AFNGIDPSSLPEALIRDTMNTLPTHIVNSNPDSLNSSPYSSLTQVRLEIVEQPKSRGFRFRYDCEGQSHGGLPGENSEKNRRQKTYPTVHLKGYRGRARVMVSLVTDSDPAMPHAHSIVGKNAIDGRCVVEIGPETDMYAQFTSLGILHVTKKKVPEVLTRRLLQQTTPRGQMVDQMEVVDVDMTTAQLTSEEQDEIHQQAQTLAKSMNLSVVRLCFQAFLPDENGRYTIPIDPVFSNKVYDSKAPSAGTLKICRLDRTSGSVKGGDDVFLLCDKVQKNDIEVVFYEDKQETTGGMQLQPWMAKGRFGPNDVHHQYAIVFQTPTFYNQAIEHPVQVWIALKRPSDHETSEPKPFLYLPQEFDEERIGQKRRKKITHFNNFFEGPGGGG

The target of the next assay is T5, GST-Co-NF-kB (UniProt F1ARL5).
T5 sequence: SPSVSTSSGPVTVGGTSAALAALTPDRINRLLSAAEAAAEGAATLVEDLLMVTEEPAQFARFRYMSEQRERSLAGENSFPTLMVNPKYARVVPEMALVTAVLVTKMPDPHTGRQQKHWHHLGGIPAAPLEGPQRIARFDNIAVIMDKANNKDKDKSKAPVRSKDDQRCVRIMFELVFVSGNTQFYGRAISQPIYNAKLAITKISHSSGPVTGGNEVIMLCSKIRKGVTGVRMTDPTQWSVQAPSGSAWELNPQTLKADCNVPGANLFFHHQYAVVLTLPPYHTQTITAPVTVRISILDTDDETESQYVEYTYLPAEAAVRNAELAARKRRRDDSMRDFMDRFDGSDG

As for “CCGATTAACATCAAAAACCCCCCTGATGTTAATCGGGTCTTGATTCGCTTGACGCTGCTG”, the binding signal in the assay with GST-Ap-NF-kB RHD was found to be 10.5 z-score; in assay [1], 9.26 z-score; in the assay with GST-Dm-Relish, 11.3 z-score; with GST-Aq-NF-kB it was 8.84 z-score.

Regarding “CCGATTAACATCATCGCGGGTAGTGATGTTAATCGGGTCTTGATTCGCTTGACGCTGCTG”, the binding signal was 0.586 z-score with GST-Ap-NF-kB RHD, 0.039 z-score in assay [1], 0.139 z-score in the assay with GST-Dm-Relish and 0.442 z-score with GST-Aq-NF-kB.

As for “CCGATTAACATCAATTTTTGCCCTGATGTTAATCGGGTCTTGATTCGCTTGACGCTGCTG”, the binding signal with GST-Ap-NF-kB RHD was 0.78 z-score; in assay [1], -0.109 z-score; in the assay with GST-Dm-Relish, 0.204 z-score; with GST-Aq-NF-kB it was 0.0842 z-score.

“CCGATTAACATCAGGGGAACCCCTGATGTTAATCGGGTCTTGATTCGCTTGACGCTGCTG”: the binding signal came to 12.5 z-score in the assay with GST-Ap-NF-kB RHD, 11.6 z-score in assay [1], 10.5 z-score with GST-Dm-Relish and 10.7 z-score with GST-Aq-NF-kB.

In the case of “CCGATTAACATCAGGAAATCCCCTGATGTTAATCGGGTCTTGATTCGCTTGACGCTGCTG”, the binding signal with GST-Ap-NF-kB RHD amounted to 10.8 z-score; in assay [1] it was 12.1 z-score; with GST-Dm-Relish, 10.3 z-score; with GST-Aq-NF-kB, 10.9 z-score.

With “CCGATTAACATCAAAAAACCCCCTGATGTTAATCGGGTCTTGATTCGCTTGACGCTGCTG”, the binding signal came out at 12.1 z-score in the assay with GST-Ap-NF-kB RHD, 11.4 z-score in assay [1], 11.4 z-score with GST-Dm-Relish and 9.82 z-score with GST-Aq-NF-kB.

With “CCGATTAACATCACGGGGAATCCTGATGTTAATCGGGTCTTGATTCGCTTGACGCTGCTG”, the binding signal was determined as 9.87 z-score with GST-Ap-NF-kB RHD, 9.94 z-score in assay [1], 10 z-score in the assay with GST-Dm-Relish and 7.48 z-score with GST-Aq-NF-kB.

“CCGATTAACATCACCCGCTTTATTGATGTTAATCGGGTCTTGATTCGCTTGACGCTGCTG”: the binding signal turned out to be 0.642 z-score in the assay with GST-Ap-NF-kB RHD, 0.262 z-score in assay [1], 0.846 z-score with GST-Dm-Relish and 0.345 z-score in the assay with GST-Aq-NF-kB.

As to “CCGATTAACATCAGGGTATAACGTGATGTTAATCGGGTCTTGATTCGCTTGACGCTGCTG”, the binding signal in the assay with GST-Ap-NF-kB RHD came to 0.603 z-score; in assay [1], 0.736 z-score; in the assay with GST-Dm-Relish, 0.383 z-score; with GST-Aq-NF-kB, 0.929 z-score.

For the sequence “CCGATTAACATCAGGACTTCCCCTGATGTTAATCGGGTCTTGATTCGCTTGACGCTGCTG”, the binding signal with GST-Ap-NF-kB RHD amounted to 10.1 z-score; in assay [1], 10.5 z-score; with GST-Dm-Relish it was 9.98 z-score; with GST-Aq-NF-kB it was 10.4 z-score.

Take “CCGATTAACATCAGGGAGCGGTTTGATGTTAATCGGGTCTTGATTCGCTTGACGCTGCTG”: the binding signal is 0.895 z-score in the assay with GST-Ap-NF-kB RHD, 0.133 z-score in assay [1], -0.0301 z-score in the assay with GST-Dm-Relish and 0.986 z-score in the assay with GST-Aq-NF-kB.

For “CCGATTAACATCAGGAAGGGCGGTGATGTTAATCGGGTCTTGATTCGCTTGACGCTGCTG”, the binding signal in the assay with GST-Ap-NF-kB RHD was 1.05 z-score; in assay [1], 0.22 z-score; in the assay with GST-Dm-Relish it was 0.62 z-score; with GST-Aq-NF-kB it was 0.641 z-score.

In the case of “CCGATTAACATCATGACTCCTGTTGATGTTAATCGGGTCTTGATTCGCTTGACGCTGCTG”, the binding signal in the assay with GST-Ap-NF-kB RHD was -0.185 z-score; in assay [1] it was -0.259 z-score; with GST-Co-NF-kB it was 0.224 z-score; with GST-Dm-Relish, -0.371 z-score; with GST-Aq-NF-kB it was -0.302 z-score.

In the case of “CCGATTAACATCAGGGATTTTTATGATGTTAATCGGGTCTTGATTCGCTTGACGCTGCTG”, the binding signal worked out at 5.66 z-score with GST-Ap-NF-kB RHD, 6.48 z-score in assay [1], 7.93 z-score with GST-Dm-Relish and 6.66 z-score with GST-Aq-NF-kB.
